First the molecules themselves.
B1: OR4K15 (parent)
chain: GUUAACGGUCAUAGGCCAUGGAAACUAGGAGCACCAUUUCGCUGCCAGUGAAGAAAUGAACAAAGAAAAUCUGGGCCAGGCAGGCAUCAAAAGAAAUAGUCUUGCGCUCAACCAGAAAGUCUGUAAUCAUUUUAAGGGUA

Read counts are not given, so values of variants with three or more changes are uncertain.

Data on 21 variants can be found in the RNAGym collection of RNA variant scans (doi:10.7554/elife.90254).

The variants in the series derive from B1. In words: self-cleavage, relative activity (ratio to wild type); higher = more cleavage; in vitro, sequencing; the parent is a self-cleaving ribozyme.
With GUUAACGGUCAUAGGCCAUGGAAACUAGGAGCACCAUUUCGCCGCCAGUGAAGAAAUGAACAAAGAGAAUCAGGGCCAGGCAGGCAUCAAGGGAAAUAGUCUUGCGCUCAACCAGAAAGUCUGUAAUCAUUUUAAGGGUA, the self-cleavage is 0.17.

For the variant GUUAACGGUCAUAGGCCAUGGAAACUAGGAGCACCAUUUCGCCGCCAGUGAAGAAAUGAACAAAGAGAAUCCGGGCCGGGCAGGCAACAAAAGAAAUAGUCUAGCGCUCAACCAGAAAGUCUGUAAUCAUUUUAAAGGUG, the self-cleavage came out at 0.04.

For the variant GUUAACGGUCAUAGGCCAUGGAAACUAGGAGCACCAUUUCGCCGCCAGUGAAGAAAUGAACAAAGAAAGUCUGGGCCAGGCAGGCAUCAAAAGAGAUAGUCUUGCGCUCAACCAGUAAGUCUGUAAUCAUUUUAAGGGUA, the self-cleavage was determined as 0.61.

Regarding GUUAACGGUCAUAGGCCAUGGAAACUAGGAGCACCAUUUCGCCGCCAGUGAAGAAAUGAACAAAGAUAAUCUGGGCCAGGCAGGCAUCAAAAGAAAUAGUCUUGCGCUCAGCCAGAAAGUCUGUAAUCAUUUUAAGGGUA, the self-cleavage is 0.02.

Regarding GUUAACGGUCAUAGGCCAUGGAAACUAGGAGCACCAUUUCGCCGCCAGUGAAGAAAUGAACAAGGAAAAUCUGGGCCAGGCAGGCAUCAAAAGAAAUAGUCUUGCGCUCAACCAGAAAGUCUGUAAUCAUUUUAAGUGUA, the self-cleavage is 1.47.

As for GUUAACGGUCAUAGGCCAUGGAAACUAGGAGCACCAUUUCGCCGCCAGUGAAGAAAUGAACAAAGAGAAUCUGGGCCAGGCAGGCAUCAAAAGAAAUAGUCUUGCGCUCAACCAGAAAGUUUGUAAUCAUUUUAAGGGUA, the self-cleavage was 2.09.

Take GUUAACGGUCAUAGGCCAUGGAAACUAGGAGCACCAUUUCGCCGCCAGUGAAGAAAUGAACAAAGAAUAUCUGGGCCUGGCAGGCAUCAAAAGAAAUAGUCUUGCGCUCAACCAGAAAGUCAGUAAUCAUUUUAAGGGUA: the self-cleavage was 0.14.

In the case of GUUAACGGUCAUAGGCCAUGGAAACUAGGAGCACCAUUUCGCCGCCAGUGAAGAAAUGAACAAAGAAGAUCUGGGCCAGGCAGGCAUCAAAAGAAAUAGUCUUGCGCUCAACCAGAGAGUCUGUAAUCAUUUUAAGGGUA, the self-cleavage was determined as 2.2.

On to GUUAACGGUCAUAGGCCAUGGAAACUAGGAGCACCAUUUCGCCGCCAGUGAAGAAAUGAACAAGGAAAAUCUGGGCCAGGCAGGCAUCAAAAGAAAUAGUCUUGCGUUCAACCAGAAAGUCUGUAAUCAUUUUAAGGGUA, for which the self-cleavage is 0.01.

On to GUUAACGGUCAUAGGCCAUGGAAACUAGGAGCACCAUUUCGCCGCCAGUGAAGAAAUGAACAAAGGAAAUCUGGGCCAGGCAGGCAUCAAAAGAAAUAGUCAUGCGCUCAACCAGAAAGUCUGUAAUCAUUUUAAGGGUA, for which the self-cleavage was 0.98.

In the case of GUUAACGGUCAUAGGCCAUGGAAACUAGGAGCACCAUUUCGCCGCCAGUGAAGAAAUGAACAAAGUAAACCUGGGCCAGGCAGGCACCAAAAGAUAUAGUCUUGCGCUCAACCAGAAAGUCUUUAAUCAUUUUAAGGGUA, the self-cleavage was determined as 0.16.

GUUAACGGUCAUAGGCCAUGGAAACUAGGAGCACCAUUUCGCCGCCAGUGAAGAAAUGAACAAAGAAAGUCUGGGCCAGGCAGGCAUCAAAAGAAAUAGUCUUGCGCUCAACCAGAAAGUCUGUAUUCAUUUUAAGGGUA: the self-cleavage came to 1.2.

Turning to GUUAACGGUCAUAGGCCAUGGAAACUAGGAGCACCAUUUCGCCGCCAGUGAAGAAAUGAACAAAGGAAAUCUGGGCCAGGCAGGCACCAAAAGAAAUAGUCUUGCGCUCAACCGGAAAGUCUGUAAUCAUUUUAAGGGUA, the self-cleavage worked out at 0.03.

Consider GUUAACGGUCAUAGGCCAUGGAAACUAGGAGCACCAUUUCGCCGCCAGUGAAGAAAUGAACAAAGAAAAUCUGGGCCGGGCAGGCAUCAAAAGAAAUAGUCUUGCGCUCAACCAGAAAGUCUGUAAUCACUUUAAGGGUA, for which the self-cleavage came to 0.05.

Take GUUAACGGUCAUAGGCCAUGGAAACUAGGAGCACCAUUUCGCCGCCAGUGAAGAAAUGAACAAAGAAAAUCUGGGCCGGGCAGGCAUCAAAGGAAAUAGUCUUGCGCUCAACCAGAAAGUCUGUAAUCAUUUUAAGGGUA: the self-cleavage came to 0.29.

With GUUAACGGUCAUAGGCCAUGGAAACUAGGAGCACCAUUUCGCCGCCAGUGAAGAAAUGAACAAAGAAAAUCUGGGCCUGGCAGGCAUCAAAAGAAAAAGUCUUGCGCUCAACCAGAAAGUCUGUAAUCAUUUUAAGGGUA, the self-cleavage was found to be 0.4.

Take GUUAACGGUCAUAGGCCAUGGAAACUAGGAGCACCAUUUCGCCGCCAGUGAAGAAAUGAACAAAGAGAAUCUGGGCCAGGCAGGCAUCAAAAGAAAUAGUCCUGCGCUCAACCAGAAAGUCUGUAAUCAUUUUAAGGGUA: the self-cleavage was determined as 2.15.

In the case of GUUAACGGUCAUAGGCCAUGGAAACUAGGAGCACCAUUUCGCCGCCAGUGAAGAAAUGAACAAAGAAAAUCUGGGCCUGGCAGGCAUCAAGAGAAAUAGUCUUGCGCUCAACCAGAAAGUCUGUAAUCAUUUUAAGGGUA, the self-cleavage is 0.09.

As for GUUAACGGUCAUAGGCCAUGGAAACUAGGAGCACCAUUUCGCCGCCAGUGAAGAAAUGAACAAAGAAGAUCUGGGCCAGGCAGGCAUCAAAAGAAAUAGUCUUGCGCUCAACCAGAAAGUCUGUAAUCGUUUUAAGGGUA, the self-cleavage came out at 1.28.

As to GUUAACGGUCAUAGGCCAUGGAAACUAGGAGCACCAUUUCGCCGCCAGUGAAGAAAUGAACAAAGAGAAUCUGGGCCAGGCAGGCAUCAAAAGAAAUAGUCUUGCGCUCAACCAGAAAGUCUGUAAUUAUUUUAAGGGUG, the self-cleavage was 1.04.

For GUUAACGGUCAUAGGCCAUGGAAACUAGGAGCACCAUUUCGCCGCCAGUGAAGAAAUGAACAAAGAGAAUCUGGGCCAGGCAGGCAUCAAAAGAAAUAGUCUCGCGCUCAACCAGAAAGUCUGUAAUCAUUUUAAGGGUA, the self-cleavage worked out at 0.86.
